Out of some 39,000 compounds screened, about 220 (0.56%) showed activity. This is one part of the list.
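Note: static incubation at 37 °C against the wild-type strain, values averaged over two biological replicates.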

The assay has as its system Escherichia coli K-12 BW25113. The assay can be described thus: relative growth (OD600 normalised to plate interquartile mean) (fraction); higher = less growth inhibition, active = 0.2 or less. The conditions noted are these: 50 µM; LB; incubation time: overnight (16-24 h).
With `CCCC(=O)Nc1ccc2c(c1)C(=O)N(C)[C@H]1CC[C@H](CC(=O)NCCN3CCCCC3)O[C@@H]1CO2`, the relative growth is inactive: 1.03. Take `C[C@@H]1CN([C@H](C)CO)C(=O)c2cc(-c3cccc(C#N)c3)cnc2O[C@@H]1CN(C)C(=O)C1CCOCC1`: the relative growth was inactive: 0.997. Consider `CC(C)CCCC(=O)N[C@@H](CCNCS(=O)(=O)O)C(=O)N[C@H](C(=O)N[C@@H](CCNCS(=O)(=O)O)C(=O)N[C@H]1CCNC(=O)[C@H]([C@@H](C)O)NC(=O)[C@H](CCNCS(=O)(=O)O)NC(=O)[C@H](CCNCS(=O)(=O)O)NC(=O)[C@H](CC(C)C)NC(=O)[C@H](CC(C)C)NC(=O)[C@H](CCNCS(=O)(=O)O)NC1=O)[C@@H](C)O`, for which the relative growth is active: 0.0299. `CC(C)NC(=O)Nc1ccc2c(c1)CC(=O)N([C@@H](C)CO)C[C@H](C)[C@@H](CN(C)S(=O)(=O)c1ccccc1)O2`: the relative growth was inactive: 0.976. Consider `C[C@H]1CN([C@@H](C)CO)C(=O)Cc2cc(NC(=O)Nc3ccc(C(F)(F)F)cc3)ccc2O[C@@H]1CN(C)Cc1ccc(Oc2ccccc2)cc1`, for which the relative growth was inactive: 1. For the compound `Cc1ccc(S(=O)(=O)N(C)C[C@H]2Oc3c(NS(=O)(=O)c4ccccc4)cccc3C(=O)N([C@H](C)CO)C[C@H]2C)cc1`, the relative growth was inactive: 0.994. `Cc1noc(C)c1NC(=O)N(C)C[C@H]1Oc2c(NC(=O)Nc3cccc4ccccc34)cccc2C(=O)N([C@@H](C)CO)C[C@@H]1C`: the relative growth was inactive: 1. On to `COc1ccc([C@@H]([C@H](Cc2ccccc2)OC(C)=O)N2C[C@H](CC(=O)N(C)C)[C@@H]3C(=NO[C@H]3c3ccccc3)[C@@H]2Cc2ccccc2)cc1`, for which the relative growth is inactive: 1.03. As to `O=c1[nH]c(=O)n([C@H]2C[C@H](O)[C@@H](CO)O2)cc1F`, the relative growth was active: 0.0339. With `O=C1CN(N=Cc2ccc(-c3ccc([N+](=O)[O-])cc3)o2)C(=O)[N-]1.[Na+]` the figure was inactive: 1.06. On to `C[C@@H]1CN([C@H](C)CO)C(=O)CCCn2cc(nn2)CO[C@@H]1CN(C)C(=O)Nc1ccccc1C(F)(F)F`, for which the relative growth was inactive: 0.998. With `CCOC(=O)CCC(=O)O[C@H]1[C@H](O[C@@H]2[C@@H](C)[C@H](O[C@H]3C[C@@](C)(OC)[C@@H](O)[C@H](C)O3)[C@@H](C)C(=O)O[C@H](CC)[C@@](C)(O)[C@H](O)[C@@H](C)C(=O)[C@H](C)C[C@@]2(C)O)O[C@H](C)C[C@@H]1N(C)C` the figure was active: 0.0544. As for `C[C@H](CO)N1C[C@H](C)[C@@H](CN(C)S(=O)(=O)c2ccc(F)cc2)Oc2ccc(NC(=O)Nc3cccc4ccccc34)cc2C1=O`, the relative growth is inactive: 0.979. With `Cc1noc(C)c1NC(=O)N(C)C[C@H]1Oc2c(NC(=O)C3CCOCC3)cccc2C(=O)N([C@H](C)CO)C[C@@H]1C` the figure was inactive: 1.03; with `O=C(Oc1ccc(C2CCCCC2)cc1)c1cccs1`, inactive: 0.934; with `C[C@H]1CCCCO[C@@H](CN(C)C(=O)Nc2ccccc2)[C@@H](C)CN([C@@H](C)CO)C(=O)c2cc(NC(=O)CCC(F)(F)F)ccc2O1`, inactive: 0.998. Regarding `C[C@@H]1CN([C@H](C)CO)S(=O)(=O)c2ccc(C#Cc3cccnc3)cc2O[C@@H]1CN(C)CC1CCOCC1`, the relative growth was inactive: 0.997. On to `CS(=O)(=O)[C@H]1CCNC1`, for which the relative growth was inactive: 0.995. For the compound `COc1ccc(/C=C2/NC(=O)NC2=O)cc1`, the relative growth is inactive: 0.974. Take `C[C@H]1CN([C@@H](C)CO)C(=O)c2cccc(NS(=O)(=O)c3ccc(F)cc3)c2O[C@@H]1CN(C)S(=O)(=O)c1ccc(F)cc1`: the relative growth was inactive: 0.992. For the compound `C[C@@H]1CN([C@@H](C)CO)C(=O)c2cc(NC(=O)c3ccncc3)ccc2O[C@@H]1CN(C)Cc1ccc2c(c1)OCO2`, the relative growth was inactive: 0.979. With `CC(C)[C@@H](CC[C@@H](C)[C@H]1CC[C@H]2[C@@H]3[C@H](O)C[C@H]4C[C@@H](NCCCNCCCCN)CC[C@]4(C)[C@H]3CC[C@]12C)OS(=O)(=O)O` the figure was active: 0.137. As for `COc1cccc(S(=O)(=O)N2C[C@H](O)COC[C@@H]3O[C@@H](CC(=O)N4CCN(c5ccccc5)CC4)CC[C@H]32)c1`, the relative growth is inactive: 1.03. For `COc1ccc2c3c(n(c2c1)C)[C@H](CO)N(Cc1cc(cc(c1)OC)OC)C[C@]13CCN(CC1)C(=O)Nc1cccc(c1)F`, the relative growth was inactive: 1.02. For `COc1ccc(S(=O)(=O)Nc2ccc3c(c2)C(=O)N([C@H](C)CO)C[C@H](C)[C@@H](CN(C)Cc2ccc4c(c2)OCO4)OCCCC[C@H](C)O3)cc1`, the relative growth is inactive: 1. In the case of `NCC1OC(OC2C(CO)OC(OC3C(O)C(N)CC(N)C3OC3OC(CN)C(O)C(O)C3N)C2O)C(N)C(O)C1O.O=S(=O)(O)O.O=S(=O)(O)O.O=S(=O)(O)O` (stereo not given), the relative growth is inactive: 1.2. `C[C@H]1CN([C@@H](C)CO)S(=O)(=O)c2ccc(C#CC(C)(C)O)cc2O[C@H]1CN(C)Cc1ccc(F)cc1`: the relative growth is inactive: 0.909. In the case of `O=C(O[C@@H]1O[C@@H]2COC(=O)c3cc(O)c(O)c(O)c3-c3c(cc(O)c(O)c3O)C(=O)O[C@H]2[C@H](OC(=O)c2cc(O)c(O)c(O)c2)[C@H]1OC(=O)c1cc(O)c(O)c(O)c1)c1cc(O)c(O)c(O)c1` it was inactive: 0.514; in that of `C[C@H](CO)N1C[C@H](C)[C@@H](CN(C)C(=O)Cc2cccnc2)Oc2ncc(C#CC3(O)CCCC3)cc2C1=O`, inactive: 1.01. For the compound `CC(C)c1c(C(=O)c2ccccc2)c(-c2ccccc2)c(-c2ccc(F)cc2)n1CC[C@@H](O)C[C@@H](O)CC(=O)O`, the relative growth was inactive: 1.01. In the case of `O=C(NNC(=O)C1CCNCC1)c1cccnc1` it was inactive: 0.883; in that of `C[C@H](O)C#Cc1ccc2c(c1)O[C@H](CN(C)C(=O)Nc1ccccc1)[C@H](C)CN([C@H](C)CO)S2(=O)=O`, inactive: 0.894. As for `Clc1ccc(C(Cn2ccnc2)OCc2ccsc2Cl)c(Cl)c1` (stereo not given), the relative growth was inactive: 0.917. In the case of `CO[C@@H]1CN(C)C(=O)c2cc(NC(=O)NC3CCCCC3)ccc2OC[C@@H](C)N(CCc2ccccc2)C[C@H]1C` it was inactive: 1. As to `C[C@H](CO)N1C[C@H](C)[C@H](CN(C)Cc2ccc3c(c2)OCCN3C)OCc2cnnn2CCCC1=O`, the relative growth was inactive: 1.

(Values after the supplement of paper PMC9446081.)
